Reference: patent US20240165252A1, “ANTIBODY-DRUG CONJUGATE AND MEDICAL USE THEREOF” (Shanghai Hansoh Biomedical Co., Ltd., priority 2021, published 2024)

Assays:
NCI-H929 cells = experiment: Killing activity of antibody drug conjugates on tumor cells (CellTiter-Glo); format: cell-based
Description: In order to test the killing effect of the antibody drug conjugates of the present disclosure on tumor cells, The BCMA high expression cell line NCI-H929 cells (ATCC deposit number CRL-9068) were used for evaluation. NCI-H929 cells were collected, centrifuged and counted. The cell density was adjusted to 1×10^5 cells/mL with complete medium, and the cells were plated in 60 wells of a white 96-well plate at 100 μL per well with a cell number of 10,000 cells/well. The rest peripheral wells were added with 100 μL DPBS per well. The cell plate was placed in a 37° C., 5% CO2 incubator and cultured overnight. On the second day of the experiment, the antibody-drug conjugate working solution was prepared with complete medium in a 96-well V-bottom plate, starting from a concentration of 133 μM (5-fold dilution and 9 concentrations). After completion of the preparation, the solution was added to a white 96-well plate at 80 μL per well in duplicates. The cell plate was placed in a 37° C., 5% CO2 incubator and the culture lasted for 72 hours. On the fifth day of the experiment, the plate was detected and read. The cell culture plate was taken out. […] The mixture was shaken and mixed, placed in dark and let stand for 10 minutes, and then detected by using the luminescence program of the microplate reader. The IC50 values were calculated using GraphPad Prims software. […]

[1] = test system: NCI-H929 transplanted tumors; experiment: Tumor killing activity in NCI-H929 transplanted tumors in mice; format: in vivo
Description: In order to further investigate the inhibition effect of the antibody drug conjugates on the proliferation of tumors formed in vivo, the anti-tumor effect of the antibody drug conjugates of the present disclosure was evaluated after formation of transplanted tumors with NCI-H929 (ATCC deposit number CRL-9068) cell line in mice. 10×10^6 NCI-H929 cells were injected subcutaneously into the back of 6-8 week-old immunodeficient nude mice (NOD-SCID). After 14 days, intravenous injection of the antibody drug conjugates via caudal vein were performed, at a frequency of once/week, continuous administration for two weeks at a dose of 3 mg/kg. Human IgG1 isotype control protein was used as the control at a dose of 3 mg/kg. There were 5 mice in each group of the control group or the administration group. The tumor inhibition rate was calculated by measuring the tumor volume, as follows:
Tumor inhibition rate TGI %=100%−(tumor volume of the administration group on day 14−tumor volume of the administration group on day 0)/(tumor volume of the control group on day 14−tumor volume of the control group on day 0).

B1: ADC2 (y = 4): antibody Ab2 conjugated with Compound D, drug load y determined to be 4 (conjugate)
heavy: QVQLVQSGAEVKKPGASVKVSCKASGYSFSDYEMHWVRQAPGQGLEWIGGIHPGSGGSAYNQKFKGRVTLTVDKSTSTAYMELSSLRSEDTAVYYCTRLDYGYSWAWFPYWGQGTLVTVSA[human IgG1 constant region left out]
light: EIVLTQSPATLSLSPGERATLSCSASSSVIYMNWYQQKPGQSPKIWIYGISNLASGVPARFSGSGSGTDFTLTISSLEPEDFAVYYCQQRSSYPLTFGGGTKVEIKRTVAAPSVFIFPPSDEQLKSGTASVVCLLNNFYPREAKVQWKVDNALQSGNSQESVTEQDSKDSTYSLSSTLTLSKADYEKHKVYACEVTHQGLSSPVTKSFNRGEC
NCI-H929 cells
  Killing activity on tumor cells in vitro (in words): good killing activity
[1]; NCI-H929 transplanted tumors, 3 mg/kg
  Tumor inhibition effect in vivo (in words): good tumor inhibition effect
[1]; NOD-SCID mice, 3 mpk intravenous, once/week for two weeks, day 14
  Tumor inhibition rate (%): 164.67%
